Not every entry of the source has a single result; some have several. This list holds those alone. The source may hold further records. Values given together seem to repeat one measurement; one of them may be the mean.
Target: canine FcRn (UniProtKB-E2ROL6 [FcRn] and UniProtKB-E2RN10 [canine beta-2-microglobulin]) (canine)
Assay: SPR Biacore 8K, pH 5.5, Fc captured on BSA via SASA tag, FcRn 400 nM

B1: wild-type canine IgG.B Fc (CH2 and CH3 domains) with SASA tag (Fc fusion, not shown: small tags and cut ends)
chain: APEMLGGPSVFIFPPKPKDTLLIARTPEVTCVVVDLDPEDPEVQISWFVDGKQMQTAKTQPREEQFNGTYRVVSVLPIGHQDWLKGKQFTCKVNNKALPSPIERTISKARGQAHQPSVYVLPPSREELSKNTVSLTCLIKDFFPPDIDVEWQSNGQQEPESKYRTTPPQLDEDGSYFLYSKLSVDKSRWQRGDTFICAVMHEALHNHYTQESLSHSPGK
- Kd: 321 nM, 592 nM, 418 nM, 534 nM, 488 nM, 514 nM, 606 nM, 489 nM, 616 nM, 614 nM, 465 nM, 1.13 µM [lines of one column]
- WT KD Avg/Variant KD: 1.76, 0.96, 1.35, 1.06, 1.16, 1.1, 0.93, 0.92, 1.22, 0.5 [lines of one column]
- koff: 1.16, 0.375, 0.185, 0.314, 0.188, 0.201, 0.16, 0.152, 0.166, 0.479, 0.135, 0.196 s⁻¹ [lines of one column]
- kon: 3.6e+06 M⁻¹ s⁻¹, 632000 M⁻¹ s⁻¹, 442000 M⁻¹ s⁻¹, 587000 M⁻¹ s⁻¹, 386000 M⁻¹ s⁻¹, 391000 M⁻¹ s⁻¹, 265000 M⁻¹ s⁻¹, 310000 M⁻¹ s⁻¹, 269000 M⁻¹ s⁻¹, 780000 M⁻¹ s⁻¹, 290000 M⁻¹ s⁻¹, 173000 M⁻¹ s⁻¹ [lines of one column]

Source: patent US20200216536A1
